About 540 (0.36%) of roughly 150,000 compounds showed an effect of 50% or more. Some of the results follow.
These compounds were tested on Plasmodium falciparum (assay: Primary screen in NF54 nanoGlo assay, in single point, at 2uM, 72h; a lower Z score goes with more inhibition). Conditions: timepoint 72 hour.
Type: functional, Erythrocyte

Structure (SMILES) | % Inhibition [%] | Z score
CCCn1nccc1-c1csc(S(=O)(=O)NC2CCCC2)c1 | -13 | 1.64
CCc1cccc(NC(=O)N2CC[C@H](N3CCOCC3)[C@H](CCC(=O)O)C2)c1 | 1 | -0.17
NC(=NCCc1ccc(F)c(F)c1)NC1CC1 | -24 | 2.45
CCS(=O)(=O)N1CCC[C@H](C(=O)NC(C(C)C)C(C)C)C1 | 4 | -0.43
Cc1cc(C)c(C(=O)NCC2CCCC2NS(C)(=O)=O)c(C)c1 (configuration not stated) | -9 | 1.01
CCOC(=O)c1noc2ncnc(N(CCC(=O)OC)c3ccccc3)c12 | -7 | 1.23
CCCN(Cc1csc(COc2cccc(Cl)c2)n1)C(=O)c1ccc(C)cc1 | 1 | -0.17
c1nc(NCCCC[C@H]2CCCO2)c2cc[nH]c2n1 | 0 | 0.05
O=S(=O)(Cc1ccc(OC(F)(F)F)cc1)Nc1cccnc1-n1cccn1 | 2 | -0.39
C=C=CCNS(=O)(=O)C[C@@H]1CC[C@H](NC(=O)OC(C)(C)C)C1 | -8 | 0.9
COc1cc(C(=O)N2CC(Nc3ccc(F)cc3)C2)sn1 | 0 | 0.02
COc1ccc(-c2[nH]ncc2C(=O)NCC2CCCCC2)cc1OC | 35 | -0.66
COCCC1(CNC(=O)N2CCCCCC2)CCC1 | 0 | 0.03
Nc1cc(N2CCn3nc(CNc4cnccn4)cc3C2)ncn1 | -14 | 1.49
Cc1cc(-c2cccnc2)nn1CCNS(=O)(=O)Cc1cc(F)ccc1F | 8 | -1.03
CC(C)n1ncc2c(=O)n(CN3CCCCC3=O)cnc21 | 5 | -0.68
C[C@@H](Cc1cccc(F)c1)NS(=O)(=O)CC1CCOCC1 | -6 | 0.83
Cc1cc(NC(=O)C[C@H](O)C(C)C)ccc1Oc1ccncc1 | -16 | 2.04
O=C(CN1C(=O)c2ccccc2C1=O)NC1CCC(O)CC1 (configuration not stated) | 2 | -0.35
Cc1ccc(C)n1CC(=O)NCCCn1ccnc1 | -7 | 0.95
CC(C)n1cc([C@@H]2CC(=O)Nc3cccc4c3c2cn4Cc2ccccc2)cn1 | -22 | 2.86
O=C1NC2(CCCCC2)C(=O)N1CN1CCC[C@H](c2nc3ccccc3s2)C1 | -6 | 0.62

Structure (SMILES) | % Inhibition [%] | Z score
COc1cc(C)cnc1C(=O)N1CC[C@H](O)C1(C)C | -3 | 0.45
N[C@@H](CC(=O)N1CCC2(CCCCC2)C1)c1ccccc1 | -11 | 2
CC(=O)NCc1csc(C2CCN(S(=O)(=O)c3cc(C)c(C)cc3C)CC2)n1 | -14 | 1.69
COc1cc(CNC[C@H]2CCCO2)cc(Br)c1OCc1cccnc1 | -6 | 0.91
Cc1ccc(Cc2nc(N3CCCN(C(=O)c4ccc(C)cc4)CC3)c3cnn(-c4ccccc4)c3n2)cc1 | 36 | -4.82
CC(C)Cc1cc(CN2CCN(Cc3ncc[nH]3)[C@H]3CS(=O)(=O)C[C@H]32)n[nH]1 | -10 | 1.14
CC1(NCc2cscn2)CCCCCC1 | -15 | 1.8
C=C[C@H]1OCC[C@@H]1NC(=O)c1cccc(OC)c1 | 11 | -2.02
CC1(C(=O)N[C@H]2CCN(C(N)=O)C2)CCCCCC1 | -5 | 0.75
C[C@H]1c2ccccc2CCN1C(=O)Nc1cn(C)nc1C1CC1 | -3 | 0.32
COCc1cc(NCCN2CCCCC2)n2nccc2n1 | 0 | 0.05
C[C@H]1CN(Cc2cc(C#N)cs2)C(C)(C)CO1 | -4 | 0.38
Cc1ccc(S(=O)(=O)Nc2ccc(S(=O)(=O)Nc3nccs3)cc2)cc1C | -9 | 1.5
C[C@H]1Cc2ccccc2N1C(=O)c1cn(C)c(=O)n(C)c1=O | -4 | 0.43
O=C(COc1ccc(-n2cccn2)nn1)NCc1cccnc1 | -11 | 2.1
CCc1ccc(C(=O)NCCNS(=O)(=O)NC(C)C)cc1 | -9 | 0.82
Cc1cccc(NC(=O)Cn2c(C)cc(=O)n3nc(-c4ccccc4Cl)nc23)c1C | -14 | 1.76
CN1CCC(N2CCC[C@H]2c2nc(-c3ccnc(N4CCOCC4)c3)no2)CC1 | -6 | 1.16
COc1ccccc1NC(=O)c1c(NCc2sccc2C)sc2c1CCCCC2 | -4 | 0.71
CCOC(=O)c1nnc2ccccc2c1N1CCN(c2ccccc2F)CC1 | -13 | 1.79
Cc1c(C(=O)NCc2cc3n(n2)CCNC3)n(C)c2c(C)cccc12 | -6 | 1.14
CC(C)CC(=O)N(Cc1cccc(OS(=O)(=O)C(C)C)c1)CC(C)C | 0 | 0.07

Structure (SMILES) | % Inhibition [%] | Z score
Cc1cccc(-c2noc([C@@H]3CCCN3C(=O)NC(C)C)n2)c1 | -3 | 0.38
Cc1ccc(-c2nc(CN3CCCS3(=O)=O)cs2)o1 | -6 | 1.02
C=CCC1(OCc2ccccc2)CCN(C(=O)Cn2nnnc2N)CC1 | -6 | 1.02
O=C(Cn1cnnn1)Nc1c2c(nn1-c1ccc(Cl)cc1)CCC2 | 6 | -0.93
O=C(c1cccc(F)c1)N1CC[C@H]2[C@H](CCCN2Cc2ccc3nsnc3c2)C1 | 11 | -1.44
CNC(=O)c1ccc(CN(Cc2nccs2)C2CC2)o1 | -12 | 1.64
Clc1cnn(CCN2CCc3onc(-c4cccc5ccccc45)c3C2)c1 | -5 | 0.7
C1CCCCCC2(CCCCC1)OC[C@H](CN1CCOCC1)O2 | -12 | 2.31
CNC(=O)c1nc(-c2ccc(C)cc2-n2nc(C)cc2C)n[nH]1 | -9 | 1.21
CCOCCO[C@@H](C)C(=O)Nc1nsc(N2CCCC2)n1 | -6 | 0.89
Cc1onc(C(=O)N2CC(F)(F)C[C@H]2c2nncn2CC2CC2)c1CN1CCCCC1 | -7 | 0.81
CCc1ccc(C(=O)NCc2c(C)cc(C)[nH]c2=O)o1 | -4 | 0.64
Cc1nc(CN(C)C(=O)c2csc(CC(C)C)n2)no1 | -11 | 1.54
CCC1(CC)NC(=O)N(CC(=O)NCc2ccc(CN3CC(C)CC(C)C3)cc2)C1=O (configuration not stated) | 13 | -1.71
O=C1CCCC(=O)N1Cc1cccc(Br)c1 | -6 | 1.06
CN(CC(=O)N1CCc2sccc2C1)Cc1ccc(OC(F)(F)F)cc1 | -3 | 0.57
Cn1ncnc1CCNC(=O)c1cccc(-c2ccc(CO)cc2CO)c1 | -13 | 1.72
CCc1nnc(CNc2c(F)cc(F)cc2Br)s1 | -5 | 0.57
CCCNC(=O)Cn1ccn2nc(-c3ccccc3)c(CO)c2c1=O | -5 | 0.46
Cc1cccc(OCc2ccc(C(=O)Nc3nccs3)o2)c1 | -10 | 1.56
O=C(CN1CCC[C@H](C(=O)N2CCCC2)C1)Nc1cccc(Cl)c1 | -11 | 1.46
O=C(CN1CCC[C@@](O)(CO)CC1)NCCc1ccc(F)cc1 | 3 | -0.46

Structure (SMILES) | % Inhibition [%] | Z score
Cc1ccc(N)cc1S(=O)(=O)N(CCO)C1CCC1 | 14 | -1.69
CCc1ccc(NC(=O)Cn2cccc2-c2nc(-c3ccccc3)cs2)cc1 | 0 | -0.06
O=C(Nc1cc2oc(=O)sc2cc1O)[C@@H]1CCCO1 | -10 | 1.89
CCCCc1nn(CC(=O)N2CCC[C@H](O)C2)c(=O)n1CCc1ccccc1 | 3 | -0.44
O=c1[nH]c(-c2ccc(OCC(F)F)nc2)nc2cc(F)c(F)cc12 | 5 | -1.03
C[C@@H]1CN(CC(=O)NCCc2csc(N)n2)C[C@H](C)O1 | 0 | -0.05
O=C(NC1CCC1)c1cccc(S(=O)(=O)NCc2n[nH]c3c2CCC3)c1 | -12 | 1.16
Cc1nn(C(C)C)c(C)c1CN1CCn2nc(C#N)cc2C1 | 12 | -2.27
O=C(N[C@H]1CC[C@H](Oc2ccccn2)CC1)N1CCOCC1 | -5 | 0.87
CC[C@H]1C=CCN1C(=O)c1ccccc1-c1nnn[nH]1 | -18 | 1.7
Cc1oncc1C(=O)NCC1(OCCO)CCCC1 | -13 | 1.44
Cc1cccc(N(CCC(N)=O)C(=O)[C@H]2CCn3ccnc3C2)c1 | -1 | 0.21
Cc1cc(NC(=O)COc2ccc(Cl)cc2)on1 | 0 | -0.03
O=C1NCC2(CCN(C(=O)c3cccc(-c4ccc5nc[nH]c5c4)c3)CC2)O1 | -36 | 3.14
CS(=O)(=O)N[C@H]1C[C@@H]2C[C@H]1N(C(=O)c1ccc(C(F)(F)F)s1)C2 | -5 | 0.76
Cc1n[nH]c(C)c1NC(=O)NCCCN(C)c1ccccc1 | -6 | 0.81
CCN(Cc1cnc2ccccn12)C(=O)C1(c2ccccc2)CCOCC1 | -1 | 0.08
COCCCn1cnnc1CNC(=O)c1cn2c3c(cccc3c1=O)CC2 | 2 | -0.28
CC(C)(C)OC(=O)N1CC(CCO)(NC(=O)CC#N)C1 | -5 | 0.97
c1cc(CNC[C@H]2CNc3ccnn3C2)cc(Cn2ccnc2)c1 | 8 | -1.43

Source: ChEMBL document CHEMBL4888484, “Replenishing the malaria drug discovery pipeline: Screening and hit evaluation of the MMV Hit Generation Library 1 (HGL1) against asexual blood stage Plasmodium falciparum ,using a nano luciferase reporter read-out” (2022)
